# Laboratory results taken from paper PMC4336329 (PLoS ONE, 2015).
# The whole screen tested about 310,000 compounds, of which about 14,000 (4.5%) showed an effect of 50% or more. Effects have a minus sign here. This is one part of the list.
# Target: human ether-à-go-go-related gene (hERG) potassium channel (human, UniProt Q12809)
# Assay: primary screen, population patch clamp on CHO cells stably expressing hERG
# 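Note: peak tail current of the secondary pulse compared with the same well before compound.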
# Chain of human ether-à-go-go-related gene (hERG) potassium channel (Q12809 whole entry, looked up): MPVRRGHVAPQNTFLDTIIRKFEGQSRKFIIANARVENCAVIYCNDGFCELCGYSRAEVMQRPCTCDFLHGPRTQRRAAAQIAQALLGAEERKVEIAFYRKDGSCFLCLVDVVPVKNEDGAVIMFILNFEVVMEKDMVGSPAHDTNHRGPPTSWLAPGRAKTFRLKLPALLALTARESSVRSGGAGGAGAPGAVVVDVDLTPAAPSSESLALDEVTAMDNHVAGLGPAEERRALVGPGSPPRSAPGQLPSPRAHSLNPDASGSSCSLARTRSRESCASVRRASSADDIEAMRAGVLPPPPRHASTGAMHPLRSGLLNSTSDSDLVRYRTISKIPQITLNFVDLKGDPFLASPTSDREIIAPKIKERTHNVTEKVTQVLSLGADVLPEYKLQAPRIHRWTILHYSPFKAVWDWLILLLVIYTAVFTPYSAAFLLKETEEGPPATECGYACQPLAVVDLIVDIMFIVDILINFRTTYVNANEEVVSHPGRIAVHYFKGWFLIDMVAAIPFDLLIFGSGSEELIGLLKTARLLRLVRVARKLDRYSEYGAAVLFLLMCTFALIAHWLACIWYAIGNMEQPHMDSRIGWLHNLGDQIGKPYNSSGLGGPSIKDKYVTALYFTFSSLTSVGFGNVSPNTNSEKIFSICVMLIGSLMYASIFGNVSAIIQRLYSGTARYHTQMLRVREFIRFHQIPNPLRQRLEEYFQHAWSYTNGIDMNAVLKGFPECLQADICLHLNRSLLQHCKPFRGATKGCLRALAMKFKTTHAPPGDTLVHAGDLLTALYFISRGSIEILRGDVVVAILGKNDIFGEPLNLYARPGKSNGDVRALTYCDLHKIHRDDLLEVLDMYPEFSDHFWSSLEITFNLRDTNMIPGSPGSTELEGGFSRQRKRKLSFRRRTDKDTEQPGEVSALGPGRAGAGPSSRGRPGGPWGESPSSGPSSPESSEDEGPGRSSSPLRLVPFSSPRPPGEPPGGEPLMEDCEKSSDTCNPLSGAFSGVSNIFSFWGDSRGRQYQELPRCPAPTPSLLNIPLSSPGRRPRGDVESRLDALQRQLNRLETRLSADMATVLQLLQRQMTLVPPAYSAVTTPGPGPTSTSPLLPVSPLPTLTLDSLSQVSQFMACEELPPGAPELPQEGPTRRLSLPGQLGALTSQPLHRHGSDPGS
row,SMILES,"hERG current change (%, negative = inhibition) at 10uM [%]"
1,Cc1nc2nc(-c3ccccc3)cc(=O)n2[nH]1,11.8
2,O=C(Nc1cccc(NC(=O)c2ccc(Br)cc2)c1)c1ccccc1,18
3,O=C(CO/N=C/c1ccc(OC(F)F)cc1)NC1CCCC1,-49
4,CN(Cc1c(F)cccc1Cl)c1nnnn1-c1ccccc1,-1.81
5,Oc1ccccc1/C=N/n1c2ccccc2c2ccccc21,7.15
6,Cc1ccccc1-c1nnc(CN2CCN(C(=O)c3ccco3)CC2)o1,-14.2
7,COc1ccc(Br)cc1/C=N/NC(=O)CN1CCN(Cc2ccccc2)CC1,-33.1
8,Cc1cc(C)c(N)cc1C,14.6
9,COc1ccccc1N1CCN(C2CCCN(C(=O)CCC(C)=O)C2)CC1 (centres unmarked),14.9
10,COc1ccc([C@H]2CC(=O)C=C(c3ccc(O)cc3)C2)cc1OC,-2.35
11,Cl.NS(=O)(=O)c1ccc(CCNCc2ccccc2OCc2ccc(F)cc2)cc1,-74.5
12,O=C(Nc1ccc2c(c1)CN(Cc1ccccc1O)CC2)C1CCCO1 (centres unmarked),-0.472
13,O=C(CN1C(=O)c2cccc([N+](=O)[O-])c2C1=O)OCC(=O)N1CCCCC1,1.09
14,Cc1ccc2c(NC(=O)c3ccco3)cccc2n1,0.511
15,Cc1[nH]c(=O)[nH]c(=O)c1Cc1cccc2ccccc12,15.2
16,COc1cccc(-c2cc3nc(-c4ccccc4)cc(N4CCCC(O)C4)n3n2)c1 (centres unmarked),10.6
17,COc1cccc2c1C(=O)c1c(O)c3c(c(O)c1C2=O)C[C@@](O)(C(=O)CO)C[C@@H]3O[C@H]1C[C@H](N)[C@@H](O)[C@H](C)O1.Cl,20.5
18,COc1ccc(Cl)cc1NS(=O)(=O)c1cccc(C(=O)NCC(c2ccco2)N(C)C)c1 (centres unmarked),-2.01
19,COC(=O)C1=C(c2c(C)noc2C)C[C@@H]2CC[C@H]1N2C(=O)N1CCC(O)(c2ccc(Cl)cc2)CC1,-35.8
20,Cc1nc2ccc(NC(=O)N(C(C)C)C(C)C)cc2s1,-1.31
21,CCN(C(=O)Cc1ccc(Br)cc1)C1CCCCC1,-15.3
22,Cc1n[nH]c(C)c1-c1nc2ccccc2[nH]1,0.975

row,SMILES,"hERG current change (%, negative = inhibition) at 10uM [%]"
1,CCn1nc(C(=O)NNC(=O)c2cc(Cl)ccc2OC)c2ccccc2c1=O,-17.5
2,Cc1cccc(NC(=O)CN2CCC(NC(=O)C3CCCCC3)CC2)c1C,0.0433
3,O=C(Nc1cccc(F)c1)c1cc(S(=O)(=O)N2CCOCC2)cs1,-18
4,CC1=C(C(=O)OCC(C)C)C(c2cccc(F)c2)N2C(=O)C(C)SC2=N1 (centres unmarked),4.25
5,CC(C)Oc1cccc(C(=O)C2CCCN(Cc3cnc(N4CCCC4)s3)C2)c1 (centres unmarked),-47.1
6,CCOc1cc(NS(=O)(=O)c2ccc(NC(C)=O)cc2)c(OCC)cc1NC(=O)C(C)C,10.3
7,O=C1NC(SCCCF)=N/C1=C/c1ccc(-n2cncn2)cc1,-4.47
8,C#CCOCCOCCOCCNc1nc(N2CCN(C(=O)C([C@@H](C)CC)n3cc(C(N)CO)nn3)CC2)nc(N2CCN(C(=O)[C@H](CCC(=O)O)n3cc(C(N)CC(C)C)nn3)CC2)n1.Cl (some centres unmarked),3.33
9,Cc1ccc(CSc2nnc(CCNC(=O)OC(C)(C)C)o2)cc1,6.81
10,O=C(O)CC(NC(=O)Nc1ccccc1)c1ccc(OC2CCCC2)cc1 (centres unmarked),26.6
11,Cc1ccc(S(=O)(=O)N2CCCC2c2nc3ccccc3s2)cc1 (centres unmarked),3.62
12,COc1ccccc1-c1nc(-c2ccccc2)nc(N2CCN(C)CC2)c1C#N,-16.3
13,Cc1ccc(C(C(=O)NCC2CCCO2)N(C(=O)c2snc(C(N)=O)c2N)c2ccc(C(C)C)cc2)o1 (centres unmarked),1.13
14,CCc1ccc(Nc2nc(C)cc(C)c2C(N)=O)cc1,4.67
15,Cc1ccccc1Cn1cnc2c(nnn2Cc2ccc(F)cc2)c1=O,-1.9
16,O=C([O-])c1ccccc1-c1c2cc(I)c(=O)c(I)c-2oc2c(I)c([O-])c(I)cc12.[Na+],4.08
17,Clc1ccc(C2=Nn3c(nnc3-c3cccs3)SC2)cc1,-4.8
18,CCCCC1=CC2=C(c3ccco3)C(=O)C(C)(OC(=O)c3ccc(OC)cc3)C(=O)C2=CN1C1CCCCC1 (centres unmarked),-1.39
19,O=C(Nc1ccc(NC(=O)c2cccs2)cc1)c1ccc(Br)o1,5.47
20,CCCN(CC(=O)Nc1ccc(F)c(F)c1F)C(=O)Cn1c(=O)cnc2ccccc21,-25.2
21,CC1CCN(CCCNC(=O)C2CCCN(c3ncnc4c3nc3n4CCCCC3)C2)CC1 (centres unmarked),-3.75
22,COc1ccc(OC)c2[nH]c(=O)c(CCNC(=O)Cc3cccs3)cc12,5.17

row,SMILES,"hERG current change (%, negative = inhibition) at 10uM [%]"
1,CNC(=S)N(CCCn1ccnc1)Cc1c(F)cccc1Cl,-9.51
2,COCCCNC(=O)CCc1nc(-c2ccccc2Cl)no1,13.1
3,CCC(C(=O)OCC(=O)N1CCN(c2ccc(OC)cc2)CC1)c1ccccc1 (centres unmarked),-33.8
4,Cc1ccccc1NC(=O)NCC1CCN(C(=O)OC(C)(C)C)CC1,-19.6
5,O=C(C(Cc1ccccc1)N1C(=O)C2C3C=CC(C3)C2C1=O)N1CCCCC1 (centres unmarked),8.64
6,CCCc1cc(=O)n2[nH]c(-c3ccc(OC)cc3)nc2n1,-7.4
7,Cc1ccccc1C(=O)N1CCN(c2ccc(NC(=O)c3cccc(OC(C)C)c3)cc2)CC1,-2.26
8,COC1CC(C)NC(=S)N1 (centres unmarked),10.5
9,COc1cc(C2C(C(C)=O)=C(O)C(=O)N2CCc2c[nH]c3ccccc23)ccc1O (centres unmarked),-0.455
10,O=[N+]([O-])c1ccccc1-c1cc(-c2ccccc2O)n[nH]1,9.44
11,COc1ccccc1NCCC(=O)OCC(=O)NC1CCCCC1,6.11
12,CCOC(=O)N1CCC(NC(=O)CS(=O)(=O)Cc2nc(-c3ccc(OC)cc3)oc2C)CC1,13.3
13,N#Cc1ccc(NC(=O)COC(=O)C2Cc3ccccc3CN2C(=O)c2ccccc2)cc1 (centres unmarked),-0.536
14,COc1ccccc1-c1nnc(SCC(=O)Nc2ccc(S(N)(=O)=O)cc2)n1C,-2.91
15,Cc1ccc(NC(=O)CSCC(=O)Nc2cc(C(F)(F)F)ccc2N2CCOCC2)cc1,-26.4
16,CC(C)CCNC(=O)[C@H](Cc1ccccc1)N1Cc2ccccc2C1=O,-11.6
17,CCOc1ccc(N(CC(=O)NCC2CCCO2)S(=O)(=O)c2ccc(Cl)cc2)cc1 (centres unmarked),-13.1
18,CC(=O)Nc1ccc(O)cc1,16.4
19,O=C(O)CCSc1nnc(-c2ccc3c(c2)OCO3)o1,-2.42
20,Cc1cc(C)nc(N/N=C/c2cccc3ccccc23)n1,5.46
21,CCCCC(=O)Nc1nnc(S(=O)(=O)N2CCCCCC2)s1,15.7
22,O=C(c1ccco1)n1nc(NCc2ccccc2)nc1NCc1ccccc1,1.76

row,SMILES,"hERG current change (%, negative = inhibition) at 10uM [%]"
1,O=C(CSc1nnc(CCCO)n1-c1ccccc1)NCCc1ccccc1,-10.2
2,Cc1ccccc1Cn1cc(NC(=O)COc2ccccc2)cn1,-4.38
3,CCOc1ccc(S(=O)(=O)N2CCN(Cc3ccco3)CC2)cc1,4.27
4,Cc1cc(Cc2ccc(N)c(C)c2)ccc1N,12
5,Cc1cc(=O)nc2c3ccccc3n(C(C)C(=O)Nc3cc(F)ccc3F)n12 (centres unmarked),-6.9
6,O=c1oc2ccccc2c(NCCc2ccccc2)c1[N+](=O)[O-],-3.6
7,O=C(c1cc2ccccc2o1)N1CCN=C1SCc1cccnc1,2.36
8,Cc1cc(C(=O)NC(C)c2ccncc2)cs1 (centres unmarked),-6.54
9,COc1ccc(NC(=S)N2CCN(Cc3ccc(C)cc3)CC2)cc1,-31.8
10,Cc1cc(=O)[nH]c(SCC(=O)Nc2cc(S(=O)(=O)N(C)C)ccc2Cl)n1,28.7
11,CC(=O)NC(Cc1c[nH]c2ccccc12)C(=O)NCc1ccc2c(c1)OCO2 (centres unmarked),-11.1
12,Cc1ccc(C2CC(=O)c3cnc(N4CCN(c5ccccc5)CC4)nc3C2)cc1 (centres unmarked),2.6
13,COc1cccc(CN2CCN(Cc3cc(OC)c(OC)c(OC)c3)CC2)c1OC.O=C(O)C(=O)O,-8.03
14,Oc1ccc(C(=S)N2CCCCC2)cc1Cl,-13.7
15,O=C(O)C(=O)/C(=C\c1cccc2ccccc12)c1ccc2ccccc2n1,17.6
16,CN(C)C(=O)c1ccc(NC(=O)c2ccccc2SCC(=O)N2CCCC2)cc1,2.81
17,O=C1CC(Cc2ccc(Cl)cc2)C(=O)N1c1ccncc1 (centres unmarked),-10.1
18,CC(=O)c1ccc(S(=O)(=O)N2CCN(C(=O)CSc3ccc(F)cc3)CC2)cc1,11.7
19,Nc1nnc(-c2ccc(Cl)cc2)s1,15
20,N#CCCN(C(=O)COC(=O)c1cccc(S(=O)(=O)Nc2ccc([N+](=O)[O-])cc2)c1)c1ccccc1,7.52
